# Results as given in PubChem BioAssay AID2147 (National Center for Advancing Translational Sciences (NCATS), 2009).
# Out of some 230,000 compounds screened, about 3,600 (1.6%) were called active. The shares of active, inactive and inconclusive entries below differ from those in the screen. The call rests on the fitted dose curve; in most records, active means well fitted inhibition curve with a large enough effect (not every such curve was filed as active); inconclusive means small, poorly fitted or top-dose-only effect, or another doubt; inactive means no such curve, though single readings can be large or run the other way. Potencies beside an inconclusive call are fits to weak or partial responses and may not hold up.
# Target: Lysine-specific demethylase 4E (Homo sapiens) (UniProt B2RXH2)
# Test: qHTS Assay for Inhibitors of Human Jumonji Domain Containing 2E (JMJD2E)
# Conditions: JMJD2E catalytic domain, FDH-coupled NADH fluorescence (FDH is formaldehyde dehydrogenase); series mostly up to 57.1 µM; activity change, negative = inhibition: at the top concentration
# Further: nearly all actives have a fitted effect of over 50% in size.
# Potency means the concentration at half of the fitted maximal effect; tags describe the fitted curve by direction and shape.
# 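Wherever activity change, negative = inhibition is given: 0% = wells with enzyme and -100% = buffer wells without enzyme.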
# UniProt B2RXH2, sequence (B2RXH2 whole entry, looked up, the tested form may be a part): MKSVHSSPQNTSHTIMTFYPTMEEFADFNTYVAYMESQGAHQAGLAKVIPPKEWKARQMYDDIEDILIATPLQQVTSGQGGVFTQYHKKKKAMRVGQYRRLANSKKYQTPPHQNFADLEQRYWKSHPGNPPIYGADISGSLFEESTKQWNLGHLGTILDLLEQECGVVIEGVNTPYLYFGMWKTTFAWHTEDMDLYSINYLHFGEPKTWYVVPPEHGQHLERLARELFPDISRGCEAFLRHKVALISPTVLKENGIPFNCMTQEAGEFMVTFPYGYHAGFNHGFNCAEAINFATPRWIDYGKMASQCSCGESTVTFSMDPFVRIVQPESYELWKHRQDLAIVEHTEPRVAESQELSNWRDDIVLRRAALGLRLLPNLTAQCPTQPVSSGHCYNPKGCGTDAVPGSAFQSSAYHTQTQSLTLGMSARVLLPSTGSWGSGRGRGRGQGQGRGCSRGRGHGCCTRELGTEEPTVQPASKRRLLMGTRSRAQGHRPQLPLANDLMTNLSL
Structure (SMILES),Potency,"activity change, negative = inhibition"
CC(C)(C)C1CCc2c(sc3c2C(=O)NC(c2ccco2)N3)C1 (centres undefined),"inconclusive: 28.2 µM [inhibitor, single point]",–
O=c1ccc(/C=C/c2ccccc2)nn1Cc1ccc(F)cc1,"inconclusive: 35.5 µM [inhibitor, partial curve]",–
COc1ccc(Cn2c(SCC#N)nc3ccc(N4CCOCC4)cc3c2=O)cc1,"inconclusive: 28.2 µM [inhibitor, partial curve]",–
Cn1nnnc1SCC(=O)Nc1ccccc1-c1ccccc1,–,inactive: 0.223%
CC(C)CCN(CCC(C)C)C(CO)(CO)CO,–,inactive: -9.61%
O=C(N/N=C/c1ccc2c(c1)OCO2)c1sc2cc(Cl)ccc2c1Cl,–,inactive: 5.61%
Cc1sc2ncnc(Sc3nnnn3-c3ccc(Cl)cc3)c2c1C,"inconclusive: 25.1 µM [inhibitor, partial curve]",–
C(=N\c1c(-c2ccccc2)nc2n1CCS2)/c1ccccc1,–,inactive: -13%
COC(=O)/C(C#N)=C(/Nc1ccc(F)c(Cl)c1)C(F)(F)F,–,inactive: -2.03%
COc1cc(OC)c(C2C(C#N)=C(C)NC(C)=C2C#N)c(C(=O)O)c1,"inconclusive: 25.1 µM [inhibitor, partial curve]",–
Cc1nonc1C(=O)N/N=C/c1ccc(O)cc1O,–,inactive: 3.8%
Cc1ccc(-c2ccc(/C=N/NC(=O)c3ccccc3O)o2)cc1,"inconclusive: 25.1 µM [inhibitor, partial curve]",–
COc1ccc(N(CC(=O)NCc2ccc(C)cc2)S(=O)(=O)c2c(C)nn(C)c2C)cc1,–,inactive: -2.56%
Cc1c(Cl)cccc1NC(=S)NCCc1ccc(C(F)(F)F)cc1,–,inactive: -14.7%
CCCc1cc(=O)[nH]c(Nc2cc(OC)ccc2OC)n1,"inconclusive: 39.8 µM [inhibitor, single point]",–
COc1ccc2ccccc2c1C(=O)/C=C\c1ccoc1,active: 25.1 µM,–
COCCN(CCOC)S(=O)(=O)c1ccc(C(=O)Nc2nc(-c3ccncc3)cs2)cc1,"inconclusive: 35.5 µM [inhibitor, single point]",–
CC1CC(C)CN(C(=O)CSc2nnc(-c3ccc(Cl)s3)o2)C1 (centres undefined),"inconclusive: 7.94 µM [inhibitor, full curve]",–
CC1(C)CCCN(C(=O)N2c3ccccc3Sc3ccccc32)C1,–,inactive: -3.56%
CCCn1c(CCC(=O)Nc2ccccc2Cc2ccccc2)nc2cc(S(=O)(=O)N3CCOCC3)ccc21,–,inactive: 10.2%
COc1ccc2c(=O)c(OC)c(-c3ccccc3)oc2c1,"inconclusive: 0.398 µM [inhibitor, full curve]",–
O=[N+]([O-])c1ccc(NC(=S)N2CCN(c3ccc(F)cc3)CC2)cc1,–,inactive: 12.6%
CCOc1ccc2c(c1)C(C)=CC(C)(C)N2C(=O)Nc1ccccc1F,"inconclusive: 28.2 µM [inhibitor, partial curve]",–
Cc1nnc(C)c2c(C)n(C(c3ccccc3)c3ccccc3)c(C)c12,"inconclusive: 25.1 µM [inhibitor, single point]",–
C=CCNCC#CCOc1ccc(OC)cc1,"inconclusive: 39.8 µM [inhibitor, single point]",–

Structure (SMILES),Potency,"activity change, negative = inhibition"
CCCCN1CCc2c([nH]c3c(C)cccc23)C1=O,"inconclusive: 28.2 µM [inhibitor, partial curve]",–
C(=N\Nc1ncnc2nc[nH]c12)/c1cccs1,"inconclusive: 35.5 µM [inhibitor, single point]",–
COc1ccccc1N1CCN(C(=O)C2c3ccccc3Oc3ccccc32)CC1,"inconclusive: 8.91 µM [inhibitor, full curve, poor fit]",–
COC(=O)c1sc(-c2ccc(Cl)cc2)cc1NC(=O)CSCC(=O)O,"inconclusive: 35.5 µM [inhibitor, partial curve]",–
COc1ccccc1/C=N/NC(=O)c1cccc(NC(=O)c2ccccc2Cl)c1,"inconclusive: 39.8 µM [inhibitor, single point]",–
Fc1ccc(C(c2nnnn2C2CCCC2)N(Cc2ccco2)CC2CCCO2)cc1 (centres undefined),–,inactive: -0.43%
COc1ccc(C(=O)NC(=O)COC(=O)c2ccc3ncsc3c2)cc1,"inconclusive: 28.2 µM [inhibitor, single point]",–
CCC1C(=O)N=C(SCC(=O)Nc2ccccc2)NC1=O (centres undefined),–,inactive: 1.87%
CC1Cc2ccccc2N1C(=O)CN1CCC(n2nnc3cc(C(F)(F)F)ccc32)CC1 (centres undefined),–,inactive: -8.56%
CSc1cccc(NC(=O)Nc2ccccc2C(N)=O)c1,"inconclusive: 25.1 µM [inhibitor, single point]",–
CCc1ccc2[nH]c(=O)c(C3C(C#N)=C(N)Oc4c3ccc3cccnc43)cc2c1 (centres undefined),"inconclusive: 28.2 µM [inhibitor, partial curve]",–
CCOC(=O)C1=C(C)OC(N)=C(C#N)C1c1ccsc1 (centres undefined),–,inactive: -8.96%
Cc1c(NC(=O)c2cc3c(=O)n4ccccc4nc3s2)c(=O)n(-c2ccccc2)n1C,"inconclusive: 25.1 µM [inhibitor, single point]",–
CCCCn1c(=O)c(CCC(=O)OCC(=O)NC(=O)NCCC(C)C)nc2ccccc21,"inconclusive: 35.5 µM [inhibitor, single point]",–
O=C(Cn1nnc(-c2ccccc2NC(=O)c2ccco2)n1)Nc1ccccc1,"inconclusive: 35.5 µM [inhibitor, single point]",–
Cn1cc(CN(CCO)Cc2cccs2)c(-c2cccc(Cl)c2)n1,"inconclusive: 12.6 µM [inhibitor, partial curve, poor fit]",–
Brc1ccc(C2Nc3cccc4cccc(c34)N2)s1,–,inactive: 5.46%
CCc1nnc(NS(=O)(=O)c2ccc(NC(=O)COc3ccc(Cl)c(C)c3)cc2)s1,–,inactive: 9.16%
COc1ccc(CN(Cc2ccc(C(=O)O)cc2)C(=S)Nc2ccccc2F)cc1OC,–,inactive: -10.6%
O=C(O)/C=C\C(=O)Nc1ccccc1C#Cc1ccccc1,"inconclusive: 25.1 µM [inhibitor, single point]",–
CCOc1ccc(N2C(=O)CC(NC3CCCCNC3=O)C2=O)cc1 (centres undefined),–,inactive: 8.05%
CCc1c2c(nc3cccc(C(C)C)c13)-c1cccc(=O)n1C2,"inconclusive: 28.2 µM [inhibitor, partial curve]",–
CCCOC(=O)c1c(N)sc2c1CCC2,–,inactive: -15.3%
COCCCn1c(=N)c(C(=O)NC2CCCCC2)cc2c(=O)n3ccccc3nc21,"inconclusive: 31.6 µM [inhibitor, partial curve]",–
